Measurements published in PubChem BioAssay AID1030 (National Center for Advancing Translational Sciences (NCATS), 2008).
In all, about 220,000 compounds went through this assay and about 16,000 (7.3%) were called active. The shares of active, inactive and inconclusive entries below differ from those in the screen. Calls follow the shape of the dose curve; as a rule, active = well fitted inhibition curve with a large enough effect (not every such curve was filed as active); inconclusive = small, poorly fitted or top-dose-only effect, or another doubt; inactive = no such curve, though single readings can be large or run the other way. No potency is given beside an inconclusive call; the fits are too rough.

These compounds were tested against Aldehyde dehydrogenase 1A1 (Homo sapiens) (UniProt P00352) (assay: qHTS Assay for Inhibitors of Aldehyde Dehydrogenase 1 (ALDH1A1)). Conditions: Purified ALDH1A1, NADH fluorescence, propionaldehyde substrate; series mostly up to 75.3 µM.
Potency is read from the fitted curve at half-maximal effect; tags tell the direction and shape of the fitted curve.

Sequence of UniProt P00352 (P00352 whole entry, looked up): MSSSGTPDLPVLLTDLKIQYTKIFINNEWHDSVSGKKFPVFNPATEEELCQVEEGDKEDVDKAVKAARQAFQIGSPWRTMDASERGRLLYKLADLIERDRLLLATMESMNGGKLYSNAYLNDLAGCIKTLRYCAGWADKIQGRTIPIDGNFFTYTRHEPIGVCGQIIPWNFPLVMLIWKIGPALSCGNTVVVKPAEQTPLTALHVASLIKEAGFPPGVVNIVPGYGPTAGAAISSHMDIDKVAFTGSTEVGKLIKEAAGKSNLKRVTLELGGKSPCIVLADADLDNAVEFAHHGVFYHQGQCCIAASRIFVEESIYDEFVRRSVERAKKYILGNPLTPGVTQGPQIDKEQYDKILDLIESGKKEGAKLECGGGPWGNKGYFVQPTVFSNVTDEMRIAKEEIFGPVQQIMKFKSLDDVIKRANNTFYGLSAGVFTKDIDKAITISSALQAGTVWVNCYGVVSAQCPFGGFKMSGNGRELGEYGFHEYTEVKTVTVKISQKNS

Row | SMILES | Potency
1 | COc1ccc(-c2[nH]ncc2CN(C)C(C)c2ccncn2)c(F)c1 (centres undefined) | inconclusive [inhibitor, single point]
2 | CN1CCN(NC(=O)c2cn(-c3ccccc3)nc2-c2cccc(Br)c2)CC1 | inconclusive [inhibitor, partial curve]
3 | CCCCc1cc(=O)oc2cc(O)ccc12 | inconclusive [inhibitor, partial curve]
4 | Oc1ccc(-c2cnns2)c(O)c1 | active: 25.1 µM
5 | CC1CCCC(NC(=O)COC(=O)Cc2ccc(Br)cc2)C1C (centres undefined) | inactive
6 | Cn1c(/N=C/c2ccc3c(c2)OCO3)nc2ccccc21 | inconclusive [inhibitor, single point]
7 | CCOC(=O)N1CCC(n2c(SCC(=O)N3CCC(C)CC3)nc3ccccc3c2=O)CC1 | inconclusive [inhibitor, single point]
8 | Nc1nc2c([nH]c(=S)n2C2OC(CO)C(O)C2O)c(=O)[nH]1 (centres undefined) | inactive
9 | Cc1noc(NS(=O)(=O)c2ccc(NC(=O)CSc3n[nH]c(-c4ccccc4)n3)cc2)c1C | inactive
10 | CCC(=O)c1ccc(N2CCN(C(=O)c3ccccc3F)CC2)c(F)c1 | active: 14.1 µM
11 | Cc1nnc(SCc2nnc(-c3cccs3)o2)n1C | inactive
12 | Cc1c(Cl)cccc1NC(=O)CN1CCN(CCN=CC2=C(O)CC(c3ccccc3)CC2=O)CC1 (centres undefined) | inconclusive [inhibitor, single point]
13 | CCOc1ccc(NC(=O)Nc2ccccc2C(N)=O)cc1 | inactive
14 | CN(C)c1cncc(C(=O)O)c1 | inconclusive [inhibitor, single point]
15 | CCCCOC(=O)Nc1ccc(OC)cc1S(=O)(=O)N1CCOCC1 | inactive
16 | CC(C)(C)C1=C(C#N)C(c2ccc3c(c2)OCO3)C(C#N)=C(N)O1 (centres undefined) | inconclusive [inhibitor, full curve]
17 | CCN(CC)CC(=O)Nc1cc(N(C)C)nc2ccccc12 | inconclusive [inhibitor, single point]
18 | CC12CCC(C(=O)N(CC3CO3)C1=O)C2(C)C (centres undefined) | inactive
19 | N#Cc1ccc(C(=O)Nc2cccc(NC(=O)c3ccco3)c2)c(F)c1 | inactive
20 | Cc1cc(C)cc(C(=O)NC(=S)Nc2ccc3c(c2)OCCO3)c1 | active: 12.6 µM
21 | CN(C)S(=O)(=O)c1cccc(NC(=S)NCc2ccco2)c1 | active: 31.6 µM
22 | COc1ccc(C(C)=O)c(OC(=O)c2ccco2)c1 | inconclusive [inhibitor, single point]
23 | CCOC(=O)c1nnn(CC(=O)N2N=C(c3ccc(Cl)cc3)CC2c2ccc(OC)cc2)c1C(=O)OCC (centres undefined) | inactive
24 | COc1ccc(/C=N/Nc2snc(SC)c2C#N)cc1OC | inconclusive [inhibitor, single point]
25 | Cc1ccsc1C1C2=C(CC(C)(C)CC2=O)Nc2ncnn21 (centres undefined) | active: 11.2 µM

Row | SMILES | Potency
26 | CCOC(=O)c1sc(Nc2nc(OC)cc(OC)n2)nc1C | inconclusive [inhibitor, partial curve]
27 | O=C(c1cc(F)ccc1F)C1CCCN(C(=O)c2ccc(F)cc2Cl)C1 (centres undefined) | inconclusive [inhibitor, partial curve]
28 | COc1cc(C(=O)NC(=S)N(C)Cc2ccccc2)cc(OC)c1OC | inconclusive [inhibitor, single point]
29 | Fc1ccc(NC(=S)NCc2cccnc2)cc1 | inactive
30 | O=c1cc(N2CCc3ccccc3C2)[nH]c(=O)n1C1CCCCC1 | inconclusive [inhibitor, full curve]
31 | CC(C)Oc1cccc(C(=O)NC(=S)Nc2ccccc2)c1 | active: 10 µM
32 | Cc1[nH]c2ccccc2c1SCC(=O)N1CCCCCC1 | inconclusive [inhibitor, single point]
33 | Cc1ccc(-c2c[n+](CC(=O)Nc3nc(-c4ccc(F)cc4)cs3)c3n2CCC3)cc1 | inactive
34 | CCc1cc(SC#N)cc(C)c1N | inconclusive [inhibitor, partial curve]
35 | Cc1nc2ncnn2c(N2CCN(C(c3ccccc3)c3ccccc3)CC2)c1C | inconclusive [inhibitor, single point]
36 | COc1ccc(Cn2c(C)c(C)c(C#N)c2NC(=O)Nc2ccc(Cl)cc2)cc1 | inconclusive [inhibitor, single point]
37 | Cc1c(N2C(=O)CSC23C(=O)Nc2ccccc23)c(=O)n(-c2ccccc2)n1C (centres undefined) | inactive
38 | Fc1ccc(C2NCCn3cccc32)cc1 (centres undefined) | inconclusive [inhibitor, single point]
39 | O=S(=O)(c1ccccc1)N1CCC[C@@]2(CCN(c3ccccc3)C2)C1 | inconclusive [inhibitor, single point]
40 | O=C(c1ccccc1)c1n[nH]c(-c2ccccc2)cc1=O | inconclusive [inhibitor, single point]
41 | CC(=O)c1sc(N/N=C/c2cccc(O)c2)nc1C | inconclusive [inhibitor, single point]
42 | CC#CCOC(=O)c1c(C)nc2sc3c(c2c1N)CC[C@@H](O)C3 | inactive
43 | CN(C)c1ccc(NC(=O)/C=C/c2ccccc2Cl)cc1 | inconclusive [inhibitor, partial curve]
44 | Cc1ccc(S(=O)(=O)NN2Cc3ccccc3C2=N)cc1 | inconclusive [inhibitor, single point]
45 | CCOC(=O)N1CCC(Nc2c(Nc3cccc(CC)c3)c(=O)c2=O)CC1 | inconclusive [inhibitor, partial curve, poor fit]
46 | COCCCN1C(=O)C(=O)/C(=C(/O)c2ccc(OC(C)C)cc2)C1c1ccc(O)c(OC)c1 (centres undefined) | inactive
47 | COc1ccc(-c2csc(-n3ncc(-c4cccs4)c3N)n2)cc1 | inconclusive [inhibitor, single point]
48 | C/C(=N\NC(=O)c1ccccc1)c1nc2ccccc2n1C | inactive
49 | Cc1cc(C)c([N+](=O)[O-])cc1-c1ccc(/C=N/c2c(-c3ccco3)nc3ccccn23)o1 | inconclusive [inhibitor, single point]
